Test results taken from a collection of fitness landscapes (doi:10.1016/j.celrep.2020.107928).
Over roughly 81,000 sequences, “one-hybrid fitness for binding parS DNA” has its median near -0.17; the highest 2% begin near 0.51. The list shows a part of the results.

B1: Caulobacter ParB omega fusion; a variant is named by its letters at X, in order, B8GW30 (parent)
chain: MESVVVGEPGMSEGRRGLGRGLSALLGEVDAAPAQAPGEQLGGSREAPIEILQRNPDQPRRTFREEDLEDLSNSIREKGVLQPILVRPSPDTAGEYQIVAGERAWRAAQRAGLKTVPIMVRELDDLAVLEIGIIENVQRADLNVLEEALSYKVLMEKFERTQENIAQTIGKSXSHVANXMRLLXLPDEVQSYLVSGELTAXHARAIAAAADPVALAKQIIEGGLSVRETEALARKAPNLSAGKSKGGRPPRVKDTDTQALESDLSSVLGLDVSIDHRGSTGTLTITYATLEQLDDLCNRLTRGI

Variants of: B1
Experiment: one-hybrid fitness for binding parS DNA (scaled: cognate 1, non-cognate 0); higher = stronger binding
Settings: with parS DNA site
Procedure, shortened: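 The reporter was HIS3, with the binding site 19 bp from the promoter, in E. coli USO used for bacterial one-hybrid selection of Caulobacter ParB libraries with four specificity codons randomised. Growth was on M9 lacking histidine, with 0.1 mM IPTG and 5 mM 3-AT, for 48 hours at 37°C. Illumina sequencing covered plasmids before and after selection; three replicate libraries were pooled and variants with under 10 reads dropped. A fitness score is the log change in variant-to-wild-type read ratio, rescaled to the cognate and non-cognate references.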

| Variant | one-hybrid fitness for binding parS DNA |
| --- | --- |
| DHFS | ≤ 0.2 |
| SAKW | ≤ 0.2 |
| QTTH | ≤ 0.2 |
| RVFN | 0.399 |
| WPGR | ≤ 0.2 |
| KNPM | ≤ 0.2 |
| HYVI | ≤ 0.2 |
| MRRC | ≤ 0.2 |
| QIKV | ≤ 0.2 |
| EFTA | ≤ 0.2 |
| MPMV | ≤ 0.2 |
| QEPH | ≤ 0.2 |
| SSLV | ≤ 0.2 |
| SGYG | ≤ 0.2 |
| ALAI | ≤ 0.2 |
| NTKA | ≤ 0.2 |
| VVCR | ≤ 0.2 |
| HDNS | ≤ 0.2 |
| PYMM | ≤ 0.2 |
| SNIC | ≤ 0.2 |
| PDQC | ≤ 0.2 |

| Variant | one-hybrid fitness for binding parS DNA |
| --- | --- |
| MLGS | ≤ 0.2 |
| GPAK | ≤ 0.2 |
| VPSR | ≤ 0.2 |
| GIPS | ≤ 0.2 |
| SSNE | ≤ 0.2 |
| PPFP | ≤ 0.2 |
| MKYC | ≤ 0.2 |
| TCEM | 0.286 |
| RPNV | ≤ 0.2 |
| TAKL | ≤ 0.2 |
| SDKF | ≤ 0.2 |
| YSNV | ≤ 0.2 |
| VADD | ≤ 0.2 |
| HMAR | ≤ 0.2 |
| NANC | ≤ 0.2 |
| CHIT | ≤ 0.2 |
| LIDS | ≤ 0.2 |
| RWGY | 0.269 |
| QMDM | ≤ 0.2 |
| RVNL | ≤ 0.2 |
| YDTF | ≤ 0.2 |

| Variant | one-hybrid fitness for binding parS DNA |
| --- | --- |
| YYYV | ≤ 0.2 |
| EHTC | ≤ 0.2 |
| SYFF | ≤ 0.2 |
| KHAG | ≤ 0.2 |
| QWMS | ≤ 0.2 |
| AINT | ≤ 0.2 |
| SSPE | ≤ 0.2 |
| LAWG | ≤ 0.2 |
| HEAE | ≤ 0.2 |
| ACVV | ≤ 0.2 |
| FFSG | ≤ 0.2 |
| YILQ | ≤ 0.2 |
| QLWL | ≤ 0.2 |
| RGPD | ≤ 0.2 |
| QLLM | ≤ 0.2 |
| VDTR | ≤ 0.2 |
| HEDV | ≤ 0.2 |
| QHGR | ≤ 0.2 |
| TAQY | ≤ 0.2 |
| HVYD | ≤ 0.2 |
| ARRK | ≤ 0.2 |

| Variant | one-hybrid fitness for binding parS DNA |
| --- | --- |
| HDWS | ≤ 0.2 |
| YWPR | ≤ 0.2 |
| NCES | ≤ 0.2 |
| HHLE | ≤ 0.2 |
| PRGS | ≤ 0.2 |
| LRMY | ≤ 0.2 |
| SVDW | ≤ 0.2 |
| QTGS | ≤ 0.2 |
| PPKH | ≤ 0.2 |
| PSQY | ≤ 0.2 |
| CNTH | ≤ 0.2 |
| LITH | ≤ 0.2 |
| WAPH | ≤ 0.2 |
| LIYP | ≤ 0.2 |
| KWSV | ≤ 0.2 |
| HTPF | ≤ 0.2 |
| HNIS | ≤ 0.2 |
| PIWY | ≤ 0.2 |
| IIPI | ≤ 0.2 |
| WVYG | ≤ 0.2 |
| SSDA | ≤ 0.2 |
